The full ranking holds about 33,000 sequences; the median of “E-score (-0.5 to 0.5)” is about -0.054, and the highest 2% start at about 0.35. The list shows a part of the results.
The sequences below were run against T1, Stb5 (UniProt P38699) (assay: PBM E-score (8-mer binding enrichment) (E-score (-0.5 to 0.5)); higher = stronger / more preferred TF binding; most listed sequences are background and not binding sites). Conditions: protein concentration: 200 nM; construct: GST-full length.
T1 sequence: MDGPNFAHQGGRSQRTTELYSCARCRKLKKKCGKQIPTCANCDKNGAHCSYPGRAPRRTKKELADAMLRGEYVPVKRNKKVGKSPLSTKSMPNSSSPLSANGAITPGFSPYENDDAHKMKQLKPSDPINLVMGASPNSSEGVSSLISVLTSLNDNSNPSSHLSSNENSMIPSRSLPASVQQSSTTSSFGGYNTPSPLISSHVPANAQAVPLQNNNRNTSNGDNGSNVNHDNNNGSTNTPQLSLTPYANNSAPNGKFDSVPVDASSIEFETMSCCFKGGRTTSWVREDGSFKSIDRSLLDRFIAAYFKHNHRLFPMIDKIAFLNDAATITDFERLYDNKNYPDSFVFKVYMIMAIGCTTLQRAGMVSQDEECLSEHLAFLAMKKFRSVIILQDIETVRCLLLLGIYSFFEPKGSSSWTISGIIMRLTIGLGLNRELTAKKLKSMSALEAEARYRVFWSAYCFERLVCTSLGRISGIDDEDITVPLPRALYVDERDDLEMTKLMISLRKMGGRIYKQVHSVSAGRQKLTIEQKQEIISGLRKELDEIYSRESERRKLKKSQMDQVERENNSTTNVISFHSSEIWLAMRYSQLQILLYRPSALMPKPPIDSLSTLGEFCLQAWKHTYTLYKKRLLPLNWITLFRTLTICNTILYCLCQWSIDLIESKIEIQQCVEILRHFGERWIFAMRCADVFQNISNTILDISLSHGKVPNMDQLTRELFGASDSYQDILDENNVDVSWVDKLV
How it was run: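 Masliner-normalised scans of fluorescent anti-GST signal were the basis for scoring. That signal came from GST-tagged yeast transcription factors applied at about 100-200 nM to double-stranded universal all-10-mer Agilent arrays on fresh or once-stripped slides. Each ungapped eight-base word, pooled with its reverse complement, received an E-score from the Universal PBM Analysis Suite.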

| Sequence | PBM E-score |
| --- | --- |
| CTATGCTA | -0.0476 |
| ATGTTGAC | 0.0757 |
| CAGGGGGA | -0.365 |
| GAGTCTAC | -0.208 |
| GTGAATAA | -0.158 |
| AGGACCCT | -0.274 |
| AGACACAA | -0.00012 |
| CGTAAAAA | 0.0566 |
| ATGCTTTG | -0.138 |
| ATAATTAT | -0.134 |
| CTTGTGCC | 0.0758 |
| ATAAATGC | 0.143 |
| ACCTTTCT | -0.161 |
| CCTCTACC | -0.103 |
| ACAGAGGG | -0.171 |
| ATCAACCG | 0.0635 |
| CCCCAGGC | -0.221 |
| ATTGTATC | 0.0561 |
| CTCACGGA | 0.0619 |
| ACACTGCC | -0.0882 |
| ATTGGGAC | -0.149 |
| CGCACATC | 0.0102 |
| CTCTCGTC | -0.183 |
| AAGGAACA | -0.11 |
| AATGGCCG | 0.286 |

| Sequence | PBM E-score |
| --- | --- |
| ATATCGTG | 0.063 |
| GAAGTGCC | 0.221 |
| GGGATTAC | 0.236 |
| ATTCGGCC | 0.215 |
| GTCATCCA | -0.207 |
| TATGCATA | -0.284 |
| ACTTTCCA | -0.0496 |
| CATTTAGA | 0.0334 |
| CTCAGAGA | -0.0435 |
| TGGTTAAA | 0.0684 |
| AGTAACCG | 0.0383 |
| CGTTGGAA | -0.0823 |
| AACATTGC | -0.0834 |
| CCTCCCCA | -0.114 |
| AACTCAGC | -0.032 |
| CGTAGGGA | -0.00471 |
| CAATGAAA | -0.197 |
| ACCATTCC | -0.0654 |
| ACGGACAG | 0.00554 |
| AAAGAACG | 0.0118 |
| CTTTGTAA | -0.067 |
| GAGCCGGA | 0.22 |
| AGCAAGGG | -0.137 |
| AACGTACC | -0.0776 |
| ACGCGAGT | -0.034 |

| Sequence | PBM E-score |
| --- | --- |
| AGATATAG | -0.13 |
| AGGTCTAG | -0.166 |
| CATAGCAG | -0.212 |
| GGTCGACA | -0.00149 |
| ACGAGCTC | -0.102 |
| GATACCAC | 0.071 |
| TGTCTGAA | -0.107 |
| GGGATACC | 0.131 |
| ATAGTGTA | -0.103 |
| CACAAGAA | -0.127 |
| AGGATGGG | -0.325 |
| AAGCTTCT | -0.214 |
| AGTTTTCA | -0.0807 |
| AAGCAAAC | -0.16 |
| AGATCAAC | -0.251 |
| AGGTACCA | -0.143 |
| CATACTAG | -0.0372 |
| ATGTTGCG | 0.0804 |
| ATCTAAGC | -0.0851 |
| CCTGTATC | -0.132 |
| ATCCAACA | -0.115 |
| GCCGAGTA | 0.0862 |
| CCGAAGCG | 0.225 |
| AAGGGAAA | -0.19 |
| ACGAGGCC | -0.0957 |

| Sequence | PBM E-score |
| --- | --- |
| ACTTCCAC | 0.0682 |
| GCTTTCAC | -0.0591 |
| ATGGTGTG | -0.246 |
| AACGGGGG | 0.296 |
| TGTCCTAA | -0.155 |
| GAAGCTAC | -0.193 |
| AAATACCA | -0.109 |
| AAAGCAAT | -0.074 |
| AACACAAC | -0.139 |
| AAGGGACA | -0.192 |
| TACGTATA | -0.0689 |
| GGCTTACA | -0.00474 |
| GGATGGCA | -0.0798 |
| AGAGTATC | -0.0711 |
| GGGGCGAA | 0.0874 |
| ACTGTGCG | -0.0441 |
| ATTGTGTG | -0.205 |
| ACCTCCGA | 0.364 |
| GCCCTCCA | -0.0409 |
| CCATTACG | -0.174 |
| ATCTACCC | 0.0858 |
| CACCCCCG | 0.126 |
| AGGTTTTG | -0.112 |
| CCCACACG | 0.0468 |
| ACCGGTGA | 0.319 |

| Sequence | PBM E-score |
| --- | --- |
| ACAACTCT | -0.283 |
| ACAACTGA | -0.152 |
| ACGTGTCC | 0.0914 |
| AGTTATCC | -0.00738 |
| TGCGGGAA | 0.25 |
| CTAGCTGA | -0.206 |
| AGTAAGAA | -0.0858 |
| AAGAGAAA | 0.0634 |
| GAAATTGA | 0.0769 |
| GCTCAACC | -0.154 |
| CACCCCCA | -0.362 |
| AAAGCACG | -0.255 |
| CGAAAGGA | 0.00285 |
| GCATTCTA | -0.0166 |
| AAAGCGAG | -0.108 |
| AAGACCTG | -0.165 |
| GCGTGGGA | 0.00204 |
| CCAAACAC | -0.0822 |
| AACCGCTG | 0.0244 |
| AATACCAG | -0.007 |
| GGGCCGGA | 0.158 |
| GGTGCAAA | 0.0625 |
| ACCAGACG | -0.148 |
| ATACCAGA | -0.177 |
| AATCAGGC | -0.0331 |

| Sequence | PBM E-score |
| --- | --- |
| GTTAAAGA | 0.166 |
| CAGTAGCA | -0.134 |
| GATTGAGC | -0.0181 |
| ACCCTCCT | -0.0607 |
| CAGCCGTA | -0.0235 |
| ATGGCGAG | -0.242 |
| ACGTACGA | -0.155 |
| CACGATGA | -0.0249 |
| AGCCCGTG | 0.174 |
| AGTATGGA | -0.162 |
| ATTTCGAC | -0.0273 |
| GGGCCCAC | 0.00454 |
| ACCGCTCA | 0.256 |
| AATTTGAT | -0.17 |
| CGTCGCTC | -0.0435 |
| CGGGAGTA | 0.417 |
| GCAACAGC | 0.0239 |
| ACTCGGAA | 0.0885 |
| ACAACCGC | 0.222 |
| TTCAGCAA | -0.256 |
| CCCCAATC | -0.148 |
| TATCGGCA | 0.322 |
| CGTGGCCC | 0.0342 |
| AATCTCGA | -0.197 |
| CGGATAAG | 0.11 |

| Sequence | PBM E-score |
| --- | --- |
| CGACTGCG | 0.0873 |
| GGGGTGCA | 0.0203 |
| ACCATATA | -0.0817 |
| ACCCTAGT | -0.225 |
| CGAAACAA | -0.0733 |
| ACCAAATG | -0.185 |
| GTCATGAC | -0.0238 |
| AAGAGCGA | -0.00753 |
| GCAATCCA | -0.0215 |
| GAAACTCA | -0.116 |
| AGCCCAGG | -0.342 |
| GACTTGTA | 0.0378 |
| TCCAGACA | -0.188 |
| CCTCCTCA | -0.214 |
| AACTGAGT | 0.0456 |
| AATGGTAT | -0.00968 |
| AGACACGC | -0.06 |
| GTAACTCA | -0.189 |
| GAGACGCC | 0.298 |
| ACACTGCG | 0.0399 |
| CAAACGGA | 0.293 |
| AAGGAGGG | -0.272 |

Source: the supplement of paper PMC3334620
